# Test results published in the RNAGym collection of RNA variant scans (doi:10.1073/pnas.2313332121).
# Variants at the floor of the assay are shown more often than the library holds them.
# B1: TPR 5TU (parent)
# chain: GGAUCUUCUCGAUCUAACAAAAAAGACAAAUCUGCCACAAAGCUUGAGAGCAUCUUCGGAUGCAGAGGCGGCAGCCUUCGGUGGCGCGAUAGCGCCAACGUUCUCAACUAUGACACGCAAAACGCGUGCUCCGUUGAAUGGAGUUUAUCAUG
# Variants of: B1
# Test: polymerase ribozyme fitness, log enrichment relative to wild type (log ratio); higher = more active; in vitro selection for triplet polymerase activity
# In short: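 One round of in vitro selection, in triplicate, was applied to PCR-built, transcribed mutant libraries of each subunit of a heterodimeric triplet polymerase ribozyme. The steps were annealing with a biotinylated primer, partner subunit and triplets, incubation frozen at −7 °C, gel excision of extended constructs, streptavidin-bead capture and RT-PCR. Fitness is the logarithm, base 2, of genotype enrichment over wild-type enrichment from inverse-variance-weighted replicate averages of Illumina-sequenced inputs and outputs, keeping genotypes with ≥10 input reads and ≥1 read per output.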
row,Variant,polymerase ribozyme fitness (log ratio)
1,G84A G140A,-3.27
2,G84A G140U,-2.64
3,G84A U90A A121U,≤ -4.2
4,G84A U101A C103G G140A U146A A150G,≤ -4.2
5,G84A U104C,-0.421
6,G84A U144G,0.394
7,G84A U145C,-0.153
8,G84A U148A,-2.74
9,G84A U148C,-2.65
10,G84A U151G,≤ -4.2
11,G84C,-1.76
12,G84C A97G,-1.95
13,G84C A106C A122G A142G A150U,≤ -4.2
14,G84C A120G G128A,≤ -4.2
15,G84C A120G U127A U135A,≤ -4.2
16,G84C A142G,-3.03
17,G84C C93A G140C,≤ -4.2
18,G84C C95A A142C,-1.65
19,G84C C96U C132G U144C,≤ -4.2
20,G84C G92U A150U,-2.39
21,G84U,-1.91

row,Variant,polymerase ribozyme fitness (log ratio)
1,G84U A89U G126U,-1.58
2,G84U A97U,-1.54
3,G84U A98G,-2.89
4,G84U A107G,≤ -4.2
5,G84U A110G,≤ -4.2
6,G84U A110U A113U,≤ -4.2
7,G84U A121C,-1.74
8,G84U A138G,≤ -4.2
9,G84U C85U C87G C96A A142U U148G,≤ -4.2
10,G84U C87G U90C C96U U145G,≤ -4.2
11,G84U C93A U101C A107G G133U G141C,≤ -4.2
12,G84U C93U C105A A137C A138C U144C A150C,≤ -4.2
13,G84U C96A C103U A113U,≤ -4.2
14,G84U C99G C103U,≤ -4.2
15,G84U C99U G141C,-2.46
16,G84U C116U G141C,-4.04
17,G84U G88C A110C U134A,≤ -4.2
18,G84U G92A G94A C99G U135A G141U,≤ -4.2
19,G84U G94C U101G C149A,≤ -4.2
20,G84U G94U,-2.37
21,G84U G100A A106U A137C,≤ -4.2

row,Variant,polymerase ribozyme fitness (log ratio)
1,G84U G100A C116G U151A,≤ -4.2
2,G84U G117U A121G,-1.75
3,G84U G124C G140U U146C,≤ -4.2
4,G84U G126U,-1.45
5,G84U G133A,≤ -4.2
6,G84U G141A,-1.4
7,G84U G141A A142U,≤ -4.2
8,G84U U102G,-4.16
9,G84U U104G,-2.26
10,G84U U104G A115C,-3.36
11,G84U U127G,-3.43
12,G84U U134A A142C,≤ -4.2
13,G84U U144G,-0.698
14,G84U U148C,≤ -4.2
15,C85A A91C C95U G140U,≤ -4.2
16,C85A A91U A113C,≤ -4.2
17,C85A A97U G152A,≤ -4.2
18,C85A A106G A110U C114A,≤ -4.2
19,C85A A106G C125A U130G U139C,≤ -4.2
20,C85A A106G G140C,≤ -4.2
21,C85A A107C G136C,≤ -4.2

row,Variant,polymerase ribozyme fitness (log ratio)
1,C85A A107G G117U G136A A150G,≤ -4.2
2,C85A A107U,≤ -4.2
3,C85A A113C C149G,≤ -4.2
4,C85A A115C,-1.64
5,C85A A119U,-2.98
6,C85A A119U A122U G141A,0.358
7,C85A A142U,-1.59
8,C85A C87A,≤ -4.2
9,C85A C87A C108U A121U U135C G141A U145A,≤ -4.2
10,C85A C87U,≤ -4.2
11,C85A C93U C125A U148A,≤ -4.2
12,C85A C95A,-0.893
13,C85A C95A C96G U109C A110C G117C U135C A138C U146G A147C U151G,≤ -4.2
14,C85A C95U C116U G128C G140U,≤ -4.2
15,C85A C96A C123A G133C,≤ -4.2
16,C85A C99G A107G,≤ -4.2
17,C85A C103A A147G,≤ -4.2
18,C85A C103A C149U,-3.27
19,C85A C103U G141C A150U,≤ -4.2
20,C85A C108U A142U,≤ -4.2
21,C85A C108U C114U,≤ -4.2
